# Measured values: the BET-seq Pho4 binding data (Le et al. 2018)
# This is one part of the list. These are noisy estimates, calculated here from bound and input reads.
# Biological target: T1, Pho4 (S. cerevisiae) (UniProt P07270)
# T1 sequence: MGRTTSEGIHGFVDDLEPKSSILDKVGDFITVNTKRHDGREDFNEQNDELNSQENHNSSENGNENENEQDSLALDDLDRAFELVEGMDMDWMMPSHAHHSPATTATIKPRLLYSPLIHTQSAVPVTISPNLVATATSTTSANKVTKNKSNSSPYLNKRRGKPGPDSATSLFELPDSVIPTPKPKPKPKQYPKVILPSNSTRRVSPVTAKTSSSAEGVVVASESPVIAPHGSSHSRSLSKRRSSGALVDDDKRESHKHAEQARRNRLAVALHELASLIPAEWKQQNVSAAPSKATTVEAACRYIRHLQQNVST
# Assay: relative binding free energy (BET-seq); higher = weaker binding
# Settings: reference: library average
row,Sequence,relative binding free energy [kJ/mol]
1,TAGAGCACGTGTGTGC,-0.335
2,GTCGTCACGTGTGGTT,0.711
3,TACGGCACGTGGGGCA,-0.795
4,AAATTCACGTGGTTGT,1.51
5,TAAAGCACGTGGGGAT,-0.335
6,GTGTTCACGTGTGATG,1.38
7,TATGGCACGTGGAGAA,0
8,CTGTGCACGTGCGGTG,-0.126
9,CGGACCACGTGGGGGA,-0.628
10,GTGGGCACGTGACAGC,0.335
11,TTTGTCACGTGAGGCG,1.51
12,TGTTCCACGTGGGGCG,-0.377
13,GGAGGCACGTGGTTTA,-0.293
14,GAGGGCACGTGTTGGG,0.167
15,GGTATCACGTGAATTT,1.84
16,GAGTGCACGTGGGGAG,0.0418
17,TGGCGCACGTGGCAGG,-1.05
18,ATTCGCACGTGTGGTA,0.0837
19,TGGGCCACGTGGGCTG,-1.67
20,TATTGCACGTGTTGGC,0.209
21,GTTCTCACGTGGCTAT,1.67
22,TGAGGCACGTGTACGA,-0.46
23,GGCGTCACGTGTAGCG,0.46
24,TCAGTCACGTGAGTTT,1.34
25,ATGTTCACGTGTGCTT,1.17

row,Sequence,relative binding free energy [kJ/mol]
1,TGGTTCACGTGGTGGG,1.55
2,TGTGGCACGTGCTGTC,-1.34
3,TTGTGCACGTGTTTAT,-0.167
4,TAACTCACGTGTTGGT,0.669
5,ATGGTCACGTGGCCGT,0.167
6,GTATGCACGTGGGAAG,-0.0837
7,AGGGACACGTGTTTAC,1.09
8,GGGAGCACGTGTCGCG,0.209
9,ACGGTCACGTGGAAGG,0
10,TGGTGCACGTGAAATG,0.962
11,TCTAGCACGTGAGGGG,0.753
12,TTATACACGTGATTAT,0.628
13,GGGTGCACGTGTCAGC,0.711
14,TTGAACACGTGGTGAG,-0.126
15,TGTGGCACGTGCGGCG,-1.05
16,CTGGGCACGTGGTTAG,-1.26
17,GGGTTCACGTGGAAGC,2.38
18,TATAGCACGTGAAGGG,1
19,ATGTTCACGTGGAGAC,1.8
20,AGTTGCACGTGGTTGA,-0.335
21,AAATTCACGTGTCATT,1.72
22,TTGGGCACGTGTACGT,-0.377
23,GGAGGCACGTGGGCAG,-0.962
24,GGTCTCACGTGGTAAG,0.837
25,TGGTTCACGTGTACAT,0.92

row,Sequence,relative binding free energy [kJ/mol]
1,TGCGGCACGTGGGAGA,-0.377
2,CAATTCACGTGTGTAG,0.837
3,GATGACACGTGCGTGT,-0.377
4,TATGTCACGTGCTGTA,0.209
5,TCTAGCACGTGGAGTT,-0.0837
6,TGTAGCACGTGGATGG,-0.418
7,ACATGCACGTGGAGGG,-0.377
8,TTTGTCACGTGCAGGC,0.126
9,TTACGCACGTGGGCTT,-1
10,GCGAGCACGTGTGAGG,-0.586
11,TAGGCCACGTGGGTTA,-1.13
12,TTGTTCACGTGTACGA,1.34
13,ATAGTCACGTGGGTAG,-0.167
14,TTGGTCACGTGCTATT,0.293
15,AGCGGCACGTGGGGCA,-1.17
16,GTTTTCACGTGTCGAT,0.962
17,TGTCGCACGTGGGGTA,-1
18,TAACGCACGTGGTGGT,-0.544
19,GTGGGCACGTGCTTGT,-0.46
20,TTAGTCACGTGGACTT,-0.126
21,ATTAACACGTGGTGAA,-0.502
22,TGATGCACGTGGTCGT,-0.669
23,AAATACACGTGATGTT,0.795
24,GGTATCACGTGTTGAA,1.21
25,ACAGTCACGTGGTTAA,0.167

row,Sequence,relative binding free energy [kJ/mol]
1,TGGTTCACGTGGCTCG,1.09
2,TTCGGCACGTGGGCTG,-1
3,AGGTTCACGTGATATT,1.34
4,TGGTTCACGTGTGGGT,1.09
5,GACGTCACGTGTTGAT,0.669
6,TTCTACACGTGGATAG,1.3
7,TTTTCCACGTGGTAGC,0.377
8,GACGGCACGTGACGGG,0
9,CGTTGCACGTGGTCAG,-0.669
10,TTTGGCACGTGGTGGG,-0.502
11,ATAAGCACGTGGCTTT,-0.377
12,AAATTCACGTGAGGAT,1.17
13,GGCAACACGTGTTTGT,0.209
14,TCTATCACGTGTGTGT,0.628
15,AGTTACACGTGTGTGG,0.46
16,TCCAGCACGTGTGGGA,1.05
17,GTTGCCACGTGTTTTA,-0.167
18,GAGTTCACGTGGGGCG,1.13
19,AGTGGCACGTGTTTAT,-0.209
20,AGGGCCACGTGTGGAG,-0.167
21,CTAGGCACGTGGGGTA,-1.42
22,TTGGTCACGTGGGGAA,0.126
23,GTGGGCACGTGAGACG,-0.46
24,GGGGTCACGTGGCTAT,0.46
25,TGATTCACGTGGATTC,1.42

row,Sequence,relative binding free energy [kJ/mol]
1,GGGGACACGTGAGCTG,0.879
2,GAAGCCACGTGAGGTG,0.837
3,GGATTCACGTGAGTAA,2.05
4,TTAAGCACGTGGTTGG,-0.293
5,AGGTTCACGTGCTAGT,1.09
6,GGGTGCACGTGCGCTG,-0.879
7,TGCGACACGTGGAGTG,-0.126
8,GAAGTCACGTGGTTGC,0.502
9,ATTTTCACGTGTTTGT,0.879
10,ATTGACACGTGATGTG,0.92
11,AGATACACGTGGTGGA,0
12,CGGTTCACGTGGAGGG,0.837
13,TGATACACGTGGGGGA,-0.167
14,ATGTGCACGTGCCGGT,-0.586
15,GATCGCACGTGGTGTT,-0.92
16,AGGCGCACGTGTGTTG,-0.251
17,GTTGTCACGTGTCGAG,0.209
18,AGGATCACGTGCGGAG,0.628
19,TGATTCACGTGAGGGG,1.72
20,TTCGGCACGTGGGAGG,-0.795
21,TTGTTCACGTGCATGT,0.418
22,AGTCACACGTGAGTAG,1.8
23,GTTATCACGTGTAATA,1.26
24,TTCCTCACGTGGGTGG,0.209
25,TTTATCACGTGGCTAG,-0.0418

row,Sequence,relative binding free energy [kJ/mol]
1,ATGTGCACGTGTTGGA,-0.0418
2,GCGGGCACGTGGGAGA,-0.586
3,GGGGTCACGTGTAATT,1.63
4,TTGAGCACGTGGTACT,-0.795
5,GTAGGCACGTGTAATT,0.293
6,TTATTCACGTGTCAGG,1.55
7,CGAGGCACGTGAGTGG,0.628
8,TCCTTCACGTGGGTGT,0.628
9,ATTGTCACGTGTTATA,-0.209
10,TTCGGCACGTGTTAGG,-0.126
11,GCGGGCACGTGGGATA,-0.837
12,GGTGCCACGTGGCAGG,-0.418
13,GTAAACACGTGTCGGT,0.251
14,ATCATCACGTGGGGGC,-0.0418
15,TGGTGCACGTGAACTT,0.628
16,TTGGGCACGTGCGTCA,-1.05
17,AATTTCACGTGAGGTA,1.72
18,TGGGTCACGTGAGTTC,1.38
19,TGCTTCACGTGGGATA,0.209
20,GGTAACACGTGGCTTG,-0.251
21,GGTGTCACGTGTTTCA,0.837
